Test results from publication PMC4336329 (PLoS ONE, 2015).
Among all 310,000 compounds or so, about 14,000 (4.5%) showed an effect of 50% or more. Effects have a minus sign here. Some of the results follow.

These molecules were tested against human ether-à-go-go-related gene (hERG) potassium channel (human, UniProt Q12809) (assay: primary screen, population patch clamp on CHO cells stably expressing hERG).
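Also: peak tail current of the secondary pulse compared with the same well before compound.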

Sequence of human ether-à-go-go-related gene (hERG) potassium channel (Q12809 whole entry, looked up): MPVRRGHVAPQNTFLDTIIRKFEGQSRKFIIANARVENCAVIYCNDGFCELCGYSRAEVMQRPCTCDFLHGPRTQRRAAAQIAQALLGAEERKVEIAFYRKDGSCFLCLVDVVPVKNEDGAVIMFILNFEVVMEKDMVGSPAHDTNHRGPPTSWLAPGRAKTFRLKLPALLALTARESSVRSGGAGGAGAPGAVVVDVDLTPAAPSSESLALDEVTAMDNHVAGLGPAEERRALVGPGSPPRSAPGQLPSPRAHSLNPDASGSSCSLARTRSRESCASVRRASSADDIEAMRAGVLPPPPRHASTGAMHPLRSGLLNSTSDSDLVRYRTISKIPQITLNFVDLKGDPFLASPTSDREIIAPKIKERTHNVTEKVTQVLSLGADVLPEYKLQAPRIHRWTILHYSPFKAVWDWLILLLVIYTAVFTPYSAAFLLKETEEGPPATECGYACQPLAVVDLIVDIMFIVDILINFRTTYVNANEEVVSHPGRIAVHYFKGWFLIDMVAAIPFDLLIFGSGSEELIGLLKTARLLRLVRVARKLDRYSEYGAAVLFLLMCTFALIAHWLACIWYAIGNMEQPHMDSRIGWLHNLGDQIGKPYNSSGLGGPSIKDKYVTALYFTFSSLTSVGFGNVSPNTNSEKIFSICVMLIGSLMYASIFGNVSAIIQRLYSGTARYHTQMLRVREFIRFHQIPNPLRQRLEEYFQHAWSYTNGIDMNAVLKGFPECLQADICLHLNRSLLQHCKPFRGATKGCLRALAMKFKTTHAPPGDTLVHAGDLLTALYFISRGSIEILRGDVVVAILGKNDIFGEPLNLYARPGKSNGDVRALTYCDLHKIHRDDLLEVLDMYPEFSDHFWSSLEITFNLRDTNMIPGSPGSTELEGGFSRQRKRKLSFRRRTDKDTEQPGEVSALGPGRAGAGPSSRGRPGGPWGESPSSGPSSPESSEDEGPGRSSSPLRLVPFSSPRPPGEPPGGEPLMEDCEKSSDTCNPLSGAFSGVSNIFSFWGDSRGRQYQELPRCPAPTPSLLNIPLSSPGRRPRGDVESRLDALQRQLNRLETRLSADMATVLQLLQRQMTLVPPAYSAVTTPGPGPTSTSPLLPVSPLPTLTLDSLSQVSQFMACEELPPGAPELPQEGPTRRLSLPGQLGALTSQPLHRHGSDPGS

Compound | hERG current change (%, negative = inhibition) at 10uM [%]
Cc1ccccc1N=C1SC(CC(=O)Nc2ccc3ccccc3c2)C(=O)N1Cc1ccccn1 (centres unmarked) | 11.1
COc1ccc2c(c1)C(SCC(=O)NCc1ccccc1)CC(C)(C)O2 (centres unmarked) | -17.5
CC(C)C(=O)NNS(=O)(=O)c1ccccc1[N+](=O)[O-] | 3.1
O=C(Cc1cn2ccsc2n1)OCc1nc2ccccc2s1 | 2.43
Cc1cccc(N/C(=N/S(=O)(=O)c2ccccc2)c2ccccc2)n1 | -24.9
Cc1ccc2nc(-c3cccnc3)c(Nc3ccccc3C)n2c1 | 15.9
O=C(Nc1nc2ccc(S(=O)(=O)N3CCCCC3)cc2s1)c1cccnc1 | -26.9
COc1ccc(NC(=O)CCSCCC(=O)Nc2ccc(OC)cc2OC)c(OC)c1 | 0.814
C/C(=N\Nc1ccc(Cl)c(C(=O)O)c1)c1ccc(Br)s1 | -8.21
CC(=O)c1ccc(S(=O)(=O)NC2CCSc3ccccc32)cc1 (centres unmarked) | -5.32
CCC(=O)N1CCc2cc(S(=O)(=O)CCC(=O)NC(C)CC)ccc21 (centres unmarked) | 13
CCOC(=O)c1ccccc1NC(=O)COC(=O)CCCOc1ccccc1 | 7.53
O=C(/C=C/c1ccc(F)cc1)NC(=S)N1CCCCC1c1cccnc1 (centres unmarked) | -68.1
Cc1ccc(S(=O)(=O)N2CCN(C(=O)c3cccs3)CC2)c(C)c1 | -24.9
COc1ccccc1NC(=O)CSc1nnc(-c2ccco2)n1N | -3.82
COc1ccc(CNc2nccs2)cc1OC | 18.2
CC1CN(O)C2CCc3c(no[n+]3[O-])C12O (centres unmarked) | 5.23
COc1ccc(N(C(=O)c2snc(C(N)=O)c2N)C(C(=O)NC2CCCCC2)c2ccc(C)o2)c(OC)c1 (centres unmarked) | -7.44
COc1ccccc1-c1nnn(CC#N)n1 | -0.346
CCOc1cc(Br)c(CC(=O)NC2CCCCCC2)cc1OCC | 2.53
CC(C)(C)NC(=O)C(c1ccc(O)cc1)N(Cc1ccco1)C(=O)Cn1nnc(-c2cccs2)n1 (centres unmarked) | -29.9
CCNC(=O)COc1ccc(Br)cc1Cl | 4.31
O=C(CSc1ccccc1C(=O)N1CCN(c2ccccc2)CC1)N1CCCC1 | 6.45

Compound | hERG current change (%, negative = inhibition) at 10uM [%]
COc1ccc(C(=O)OCC(=O)NC(=O)NC2CCCC2)c(OC)c1 | 28.5
CCC(NS(=O)(=O)c1ccc(C)cc1)C(=O)N1CCOCCOCCOCC1 (centres unmarked) | 28.9
COc1ccccc1NC(=S)N(Cc1ccccn1)Cc1ccccc1Cl | -9.66
O=C(CNC(=O)c1ccncc1)N/N=C/c1ccccn1 | 12.7
O=C(Nc1ccc(Oc2ncnc3cc(Cl)ccc23)nc1)Nc1cccc(C(F)(F)F)c1 | 0.134
O=C(NNC(=O)c1ccc(Cn2cccn2)o1)NC12CC3CC(CC(C3)C1)C2 | 2.5
COC(=O)c1c(NC(=O)CCCC(=O)O)sc(C)c1C | 10.3
CCOC(=O)C1CCCN(S(=O)(=O)c2nc3nc(C)cc(C)n3n2)C1 (centres unmarked) | 14.2
O=C(NCCCc1ccncc1)C1CCC(=O)N(Cc2ccc(Cl)cc2)C1 (centres unmarked) | -61.1
COc1ccc(-c2noc3c2-c2nc(-c4ccc(Cl)cc4)sc2CC3)cc1 | 9.5
CCOC(=O)c1c(-c2ccccc2)n(C)c2ccc(O)cc12 | 10.3
CCOC(=O)c1sc(NC(=O)c2cccnc2)c(C#N)c1C | 27.1
O=C(NCc1ccc2c(c1)OCO2)c1ccc(CS(=O)(=O)c2cccc(C(F)(F)F)c2)o1 | -24.2
COc1ccc(-c2cn3cccnc3n2)cc1NC(=O)c1cc(OC)c(OC)c(OC)c1 | -10.9
CC(=O)Nc1ccc(-n2nnnc2SCC(=O)NCc2cccs2)cc1 | 9.76
O=C(N/N=C/c1ccc(OCCCF)cc1)c1cc(OCC(F)(F)F)ccc1OCC(F)(F)F | 10.3
CC(C)(C)n1nc2c(c1NC(=O)Cc1ccc(F)cc1)CSC2 | 4.68
CC(=O)c1oc2ccccc2c1NC(=O)CCCN1C(=O)c2ccccc2C1=O | 5.21
COc1ccc(-c2nc(C(N)=O)c3[nH]c(=O)n(-c4cccc(C)c4)c3n2)c(OC)c1 | -16.8
CC(C)(Oc1ccc(Br)cc1)C(=O)N1CCc2ccccc21 | 9.84
CS(=O)(=O)N1CCCC(C(=O)NCCCN2CCc3ccccc3C2)C1 (centres unmarked) | -7.27
Cc1c(NC(=O)C(C)c2ccc(CC(C)C)cc2)c(=O)n(-c2ccccc2)n1C (centres unmarked) | -9.77
CC(=O)Nc1ccc(S(=O)(=O)NNC(=O)c2ccc(C)cc2)cc1 | -12.6

Compound | hERG current change (%, negative = inhibition) at 10uM [%]
CCc1nnc(NC(=O)/C=C/c2ccco2)s1 | 25.4
Nc1nc(Cl)cc(Oc2ccc(Cl)cc2)n1 | 9.29
CC(C)(C)C(=O)/C=C(\N)c1ccncc1 | 1.74
O=C1CSC(c2ccc([N+](=O)[O-])cc2)N1Cc1ccccc1 (centres unmarked) | -48.8
Cc1ccc(S(=O)(=O)N2CCN(C(=O)c3c(-c4ccccc4)noc3C)CC2)cc1C | 1.83
O=S(=O)(c1cccc(S(=O)(=O)N2CCC(n3nnc4ccccc43)CC2)c1)N1CCCCC1 | -55.7
COc1ccc(CN2CCN(Cc3cccc(Oc4ccccc4)c3)CC2)c(OC)c1OC.O=C(O)C(=O)O | -58
Cn1c2ccccc2c2n[nH]c(=O)nc21 | 17.5
O=C1CCCCN1CCC(=O)N1CCCC(N2CCN(c3cccc(Cl)c3)CC2)C1 (centres unmarked) | -21.3
C#CC1(O)CC(C)NCC1(C)CCC#N (centres unmarked) | 5.51
CCc1ccc(NC(=O)Cn2ncc3c4ccccc4n(C)c3c2=O)cc1 | 11.6
Cc1cc([N+](=O)[O-])nn1Cc1ccccc1F | 6.01
COCCn1c(SCC(=O)Nc2cc(C)on2)nc2c(c1=O)SC(C)C2 (centres unmarked) | 10.5
COC(=O)[C@@H]1C[C@@]2(O)[C@@H](O)[C@@H](O)[C@@H](O)C[C@H]2N1C/C=C/c1ccccc1 | 11.2
COc1ccccc1-c1cc(C(F)(F)F)n2ncc(C(=O)N3CCc4ccccc4C3)c2n1 | 0.682
Cc1cccc(-n2c(=O)c3c(C)c(C)sc3n(CC(N)=O)c2=O)c1 | -13.2
O=C(CCc1nnc(C2CCCCC2)o1)NCCCOc1cccnc1 | 10.6
O=C(O)C1CCCN1C(=O)NC1CCCCC1 (centres unmarked) | 20.8
Cc1sc2ncn(CC(=O)Nc3cccc(S(N)(=O)=O)c3)c(=O)c2c1-c1ccccc1 | 9.25
Cc1ccc(C)c(-n2nnnc2Sc2nnnn2-c2ccccc2)c1 | -13.8
O=C(CN1C(=O)S/C(=C\c2ccc(O)cc2)C1=O)c1ccccc1 | 12.5
Br.CCc1ccc(OCC(=O)NN2Cc3ccccc3C2=N)cc1 | -38.8
NS(=O)(=O)c1ccc(NC(=O)COc2ccc(S(=O)(=O)N3CCCC3)cc2)cc1 | 21

Compound | hERG current change (%, negative = inhibition) at 10uM [%]
Cc1cc(C)n2nc(SCc3nc4ccccc4[nH]3)nc2n1 | -6.44
CCOC(=O)Cc1cc(=O)n2[nH]c(C)cc2n1 | -22.3
Cc1ccc(C)c(CN2C(=O)C3(OCCCO3)c3ccccc32)c1 | -7.5
Cc1noc(C)c1C(=O)Nc1ccccc1N1CCOCC1 | -3.82
COc1ccc(-c2nc(CS(=O)CC(=O)NCCCN3CCCC3)c(C)o2)cc1OC (centres unmarked) | -3.81
CCOc1cc(/C=N/n2cnnc2)ccc1OCC(=O)Nc1ccccc1OC | 0.488
Cn1c(=O)n(C)c2cc(S(=O)(=O)Nc3ccccc3)ccc21 | 10.6
COc1cccc(C(=O)N2CCN=C2SC)c1 | 14.9
COC(=O)c1ccccc1NC(=O)NC1CC1 | 19.5
O=C1CC(N2CCOCC2)C(=O)N1CCN1C(=O)CC(N2CCOCC2)C1=O (centres unmarked) | 6.4
O=C(Nc1ccccn1)C1CCCN(c2ncnc3c2nc2n3CCCCC2)C1 (centres unmarked) | -34.8
CCc1nc(SCC(N)=O)c2c(=O)n(C)c(=O)n(C)c2n1 | 6.27
CCC(C)NC(=O)CN(C1CCCCC1)S(C)(=O)=O (centres unmarked) | 9.11
Cc1cc(C(=O)Nn2c(-c3ccncc3)nc3ccccc3c2=O)ccc1[N+](=O)[O-] | 31.8
N#Cc1ncc(Cl)c2ccccc12 | 9.95
Cc1ccc(C)c(NC(=O)CSc2nnc(NC(=O)C3CC3)s2)c1 | 18.6
COc1ccc(OC)c(S(=O)(=O)NC2CCSc3ccccc32)c1 (centres unmarked) | -7.58
Cc1noc(C)c1CN(C(=S)NC1CC2CCC1C2)c1ccccc1 (centres unmarked) | -13
CCN(CCCNC(=O)CCCOc1cc(=O)n(C)c2ccccc12)Cc1ccccc1 | -12.1
Cl.O=C(O)c1ccc(OCCn2ccnc2)cc1 | 17.6
